{"source": "the supplement of paper PMC3334620", "note": "In all, about 33,000 sequences were measured (“E-score (-0.5 to 0.5)”: median about -0.035, highest 2% from about 0.34 on). The list shows a part of the results.", "data": [{"target": "T1, Mot3 (UniProt P54785)", "T1 sequence": "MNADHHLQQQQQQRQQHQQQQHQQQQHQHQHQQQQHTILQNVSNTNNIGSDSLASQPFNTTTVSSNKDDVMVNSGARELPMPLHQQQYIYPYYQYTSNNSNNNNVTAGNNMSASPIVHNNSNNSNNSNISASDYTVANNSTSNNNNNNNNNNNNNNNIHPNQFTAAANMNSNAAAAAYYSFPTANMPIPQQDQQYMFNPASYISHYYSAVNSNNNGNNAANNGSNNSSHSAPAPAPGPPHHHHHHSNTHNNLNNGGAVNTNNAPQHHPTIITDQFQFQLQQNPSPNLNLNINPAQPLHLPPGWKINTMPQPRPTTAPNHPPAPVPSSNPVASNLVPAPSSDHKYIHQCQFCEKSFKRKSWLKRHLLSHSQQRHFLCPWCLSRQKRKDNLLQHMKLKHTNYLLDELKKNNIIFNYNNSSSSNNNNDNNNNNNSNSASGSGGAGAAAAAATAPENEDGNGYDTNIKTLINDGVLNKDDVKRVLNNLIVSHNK", "assay": "PBM E-score (8-mer binding enrichment) (E-score (-0.5 to 0.5)); higher = stronger / more preferred TF binding; most listed sequences are background and not binding sites", "settings": "protein concentration: 200 nM; construct: GST-full length", "procedure": "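Universal 'all 10-mer' protein binding microarrays (Agilent AMADID 015681) probed with GST-tagged S. cerevisiae TFs (full-length or DBD) made by in vitro transcription/translation (PURExpress), about 100-200 nM. Bound TF was detected with fluorescent anti-GST. Each ungapped 8-mer (which stands for itself and its reverse complement) is scored by the PBM enrichment score (E-score), a modified Wilcoxon-Mann-Whitney statistic from -0.5 to +0.5, computed with the Universal PBM Analysis Suite. Scale: above 0.35 generally sequence-specific binding.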", "values": [{"sequence": "GACTATAC", "PBM E-score": -0.0783}, {"sequence": "ACGTTTTA", "PBM E-score": 0.16}, {"sequence": "CTCCTATC", "PBM E-score": -0.0146}, {"sequence": "ATGCGGGA", "PBM E-score": -0.0816}, {"sequence": "ATTTTAAA", "PBM E-score": 0.132}, {"sequence": "GTGTAAAA", "PBM E-score": 0.377}, {"sequence": "AAGTAGGT", "PBM E-score": 0.171}, {"sequence": "AATACACT", "PBM E-score": 0.259}, {"sequence": "GCCTTTAC", "PBM E-score": 0.357}, {"sequence": "GGTATTGA", "PBM E-score": -0.0693}, {"sequence": "AGTGCTTA", "PBM E-score": -0.00158}, {"sequence": "CTTGCCAC", "PBM E-score": -0.112}, {"sequence": "GTTGGGCA", "PBM E-score": 0.203}, {"sequence": "AGTGGGCC", "PBM E-score": -0.196}, {"sequence": "GGTCTATA", "PBM E-score": 0.0699}, {"sequence": "ACTTTTGA", "PBM E-score": 0.0586}, {"sequence": "ACCATCGC", "PBM E-score": 0.0767}, {"sequence": "ACACACTG", "PBM E-score": 0.059}, {"sequence": "CGACTTCA", "PBM E-score": -0.0501}, {"sequence": "ACAATACG", "PBM E-score": 0.132}, {"sequence": "CTGCCAGC", "PBM E-score": -0.192}, {"sequence": "CCAGAGTA", "PBM E-score": -0.0687}, {"sequence": "ACTGCAAG", "PBM E-score": 0.0351}, {"sequence": "CACTTATA", "PBM E-score": -0.0358}, {"sequence": "TCTTAGAA", "PBM E-score": 0.0228}, {"sequence": "GGAGAGTA", "PBM E-score": -0.322}, {"sequence": "CATGTAAG", "PBM E-score": 0.398}, {"sequence": "CTAAGGCC", "PBM E-score": -0.0134}, {"sequence": "AATCCACT", "PBM E-score": 0.0475}, {"sequence": "GCCTCGCA", "PBM E-score": -0.156}, {"sequence": "ACGTGTCT", "PBM E-score": 0.14}, {"sequence": "CCGAGGAA", "PBM E-score": -0.00332}, {"sequence": "CCCAACCG", "PBM E-score": -0.231}, {"sequence": "AGGATTGG", "PBM E-score": -0.12}, {"sequence": "AGAAGCAA", "PBM E-score": 0.146}, {"sequence": "AACCGCTC", "PBM E-score": -0.0669}, {"sequence": "AGAGATCG", "PBM E-score": -0.0504}, {"sequence": "CACAAGTA", "PBM E-score": 0.0666}, {"sequence": "ACCCATCG", "PBM E-score": -0.107}, {"sequence": "CCTACACA", "PBM E-score": 0.311}, {"sequence": "ATGCCGGG", "PBM E-score": -0.234}, {"sequence": "ATGAGCAG", "PBM E-score": -0.0848}, {"sequence": "ACTTTGCG", "PBM E-score": -0.0351}, {"sequence": "ACCATCCG", "PBM E-score": -0.0418}, {"sequence": "TCAGCTGA", "PBM E-score": 0.111}, {"sequence": "AGACAACG", "PBM E-score": 0.0923}, {"sequence": "CGGATGAG", "PBM E-score": -0.235}, {"sequence": "ACGGTAGA", "PBM E-score": -0.183}, {"sequence": "AAAAGAGA", "PBM E-score": -0.0482}, {"sequence": "AATTATAC", "PBM E-score": 0.147}, {"sequence": "CAATGACC", "PBM E-score": -0.0882}, {"sequence": "GCGTGATA", "PBM E-score": -0.0238}, {"sequence": "CTGAGGTA", "PBM E-score": -0.0122}, {"sequence": "CACTAAGG", "PBM E-score": -0.0602}, {"sequence": "ACACATAT", "PBM E-score": 0.176}, {"sequence": "ACAGTGCA", "PBM E-score": 0.0846}, {"sequence": "CACGGATA", "PBM E-score": 0.093}, {"sequence": "ACTTCATA", "PBM E-score": -0.0786}, {"sequence": "AATAGCCG", "PBM E-score": 0.0694}, {"sequence": "AAAGTGCC", "PBM E-score": 0.155}, {"sequence": "GCTATTGA", "PBM E-score": -0.0881}, {"sequence": "CATTGTTC", "PBM E-score": 0.102}, {"sequence": "AACATCCG", "PBM E-score": 0.144}, {"sequence": "AACTTTGC", "PBM E-score": 0.0198}, {"sequence": "CGAGTTTA", "PBM E-score": -0.0664}, {"sequence": "GTTGCTTA", "PBM E-score": 0.0798}, {"sequence": "CCAAATTA", "PBM E-score": 0.128}, {"sequence": "AAACCGAA", "PBM E-score": -0.0393}, {"sequence": "CCCTAACG", "PBM E-score": -0.0373}, {"sequence": "CCACTTTA", "PBM E-score": -0.0759}, {"sequence": "GCGTGTTA", "PBM E-score": 0.393}, {"sequence": "AGCGAGCC", "PBM E-score": -0.153}, {"sequence": "AGAGAGTC", "PBM E-score": -0.265}, {"sequence": "ACCCAAGA", "PBM E-score": -0.165}, {"sequence": "GACGTACA", "PBM E-score": 0.161}, {"sequence": "GTTTCAGA", "PBM E-score": -0.0444}, {"sequence": "CCGTCGGC", "PBM E-score": -0.214}, {"sequence": "GAAATAGC", "PBM E-score": 0.114}, {"sequence": "TGATCAAA", "PBM E-score": -0.236}, {"sequence": "ATAGTAAA", "PBM E-score": 0.247}, {"sequence": "CAACCCGG", "PBM E-score": -0.133}, {"sequence": "CCAGTCAC", "PBM E-score": -0.0506}, {"sequence": "CGTTACCC", "PBM E-score": -0.19}, {"sequence": "CTGCGGCA", "PBM E-score": -0.211}, {"sequence": "AACCGCCA", "PBM E-score": -0.0893}, {"sequence": "ACTCCGAC", "PBM E-score": -0.0607}, {"sequence": "ATGCTAAC", "PBM E-score": 0.156}, {"sequence": "CTCAGAAG", "PBM E-score": -0.185}, {"sequence": "ACGGGTGG", "PBM E-score": -0.142}, {"sequence": "CATAACAA", "PBM E-score": 0.302}, {"sequence": "AGACCGCT", "PBM E-score": -0.17}, {"sequence": "CCACCTAA", "PBM E-score": -0.0127}, {"sequence": "CAATGGTG", "PBM E-score": -0.164}, {"sequence": "ATGGTTCC", "PBM E-score": 0.0253}]}]}
